Each structure is given as a SMILES string. In all, about 310,000 compounds went through this assay and about 14,000 (4.5%) showed an effect of 50% or more. The effect is printed as a negative number. The list shows a part of the results.
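Note: peak tail current of the secondary pulse compared with the same well before compound.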

The target of the experiment is human ether-à-go-go-related gene (hERG) potassium channel (human, UniProt Q12809). Put plainly: primary screen, population patch clamp on CHO cells stably expressing hERG.
human ether-à-go-go-related gene (hERG) potassium channel, sequence (Q12809 whole entry, looked up): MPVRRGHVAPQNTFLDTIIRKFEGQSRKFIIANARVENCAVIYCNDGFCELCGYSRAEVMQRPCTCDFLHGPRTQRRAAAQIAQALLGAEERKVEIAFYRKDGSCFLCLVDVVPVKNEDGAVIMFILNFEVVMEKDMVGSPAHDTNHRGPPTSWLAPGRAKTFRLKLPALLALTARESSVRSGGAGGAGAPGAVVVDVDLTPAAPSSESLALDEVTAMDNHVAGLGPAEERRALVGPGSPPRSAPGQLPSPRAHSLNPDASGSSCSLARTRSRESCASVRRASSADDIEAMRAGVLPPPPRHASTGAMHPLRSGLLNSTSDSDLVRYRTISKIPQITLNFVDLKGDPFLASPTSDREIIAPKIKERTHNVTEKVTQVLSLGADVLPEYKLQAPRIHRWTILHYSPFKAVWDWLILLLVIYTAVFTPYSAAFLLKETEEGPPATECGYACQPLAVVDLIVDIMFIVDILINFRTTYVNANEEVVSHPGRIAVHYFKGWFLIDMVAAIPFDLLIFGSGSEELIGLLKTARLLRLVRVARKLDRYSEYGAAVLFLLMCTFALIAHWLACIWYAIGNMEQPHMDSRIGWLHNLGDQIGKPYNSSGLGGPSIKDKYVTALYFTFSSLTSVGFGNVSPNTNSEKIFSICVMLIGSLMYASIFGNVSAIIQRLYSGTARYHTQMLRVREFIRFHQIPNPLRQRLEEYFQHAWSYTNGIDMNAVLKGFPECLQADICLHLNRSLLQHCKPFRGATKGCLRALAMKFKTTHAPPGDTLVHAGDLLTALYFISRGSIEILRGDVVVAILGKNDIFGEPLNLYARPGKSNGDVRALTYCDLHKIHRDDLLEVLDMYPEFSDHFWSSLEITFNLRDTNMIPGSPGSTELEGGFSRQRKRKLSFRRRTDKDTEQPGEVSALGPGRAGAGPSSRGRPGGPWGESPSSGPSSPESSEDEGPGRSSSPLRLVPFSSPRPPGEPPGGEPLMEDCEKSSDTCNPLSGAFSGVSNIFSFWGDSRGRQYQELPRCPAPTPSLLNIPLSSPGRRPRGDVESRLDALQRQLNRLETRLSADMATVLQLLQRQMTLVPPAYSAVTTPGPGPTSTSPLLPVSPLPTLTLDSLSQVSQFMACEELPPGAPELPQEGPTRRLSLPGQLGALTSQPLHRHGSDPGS
With `O=C(COC(=O)/C=C/c1cn(-c2ccccc2)nc1-c1ccc2c(c1)OCCO2)NC1CCS(=O)(=O)C1` (centres unmarked), the “hERG current change (%, negative = inhibition) at 10uM” value was 1.05%.
`CCOC(=O)c1ccc(NC(=O)N2CCN(C(=O)C3CCCO3)CC2)cc1` (centres unmarked): the “hERG current change (%, negative = inhibition) at 10uM” value was 2.68%.
The figure for `COCCCn1c2nc3ccccc3nc2c2c(=O)n(Cc3ccccc3Cl)cnc21` is 11.7%; for `CN(CC(=O)Nc1ccc(N2CCOCC2)cc1)C(=O)Cc1ccccc1` it is 6.7%; for `COc1ccc(S(=O)(=O)N2C3CCC2CC(NC(=O)C2CC2)C3)cc1` (centres unmarked) it is 14%.
In the case of `O=C(CC(=O)Nc1ccc(Cl)c(Cl)c1)N/N=C/c1ccc(O)cc1` it was -10.3%.
In the case of `CCOc1ccccc1/C=C/c1onc(C)c1S(=O)(=O)N1CCC(C(=O)N2CCCCCC2)CC1` it was -10.8%; in that of `Cl.O=C(c1cccc(S(=O)(=O)N2CCCC2)c1)N1CCN(Cc2ccccc2)CC1`, -14.2%; in that of `Cc1cccc(C(=O)N=c2sccn2C)c1[N+](=O)[O-]`, 3.12%.
As for `O=C(O)C1CCCN1S(=O)(=O)c1ccc(Cl)c(Cl)c1` (centres unmarked), the “hERG current change (%, negative = inhibition) at 10uM” value is on record as 0.134%.
In the case of `CC(C)Cn1c(-c2cccs2)nc2nc3ccccc3nc21` it was 2.09%; in that of `Cn1cc(/C=N/n2cnc3scc(-c4ccc(Cl)cc4)c3c2=O)c2ccccc21`, 4.06%.
The figure for `NS(=O)(=O)c1ccc(CCNC(=O)c2cccc(S(=O)(=O)N3CCCC3)c2)cc1` is -5.57%.
For the compound `Cc1cc(C(=O)N/N=C/c2sccc2C)no1`, the “hERG current change (%, negative = inhibition) at 10uM” value came out at 17.2%.
In the case of `COc1cc(/C=N/NC(=O)c2cc(-c3cccs3)nc3ccccc23)ccc1O` it was -10.1%; in that of `O=C(c1ccoc1)N1CCC2(CC1)Oc1ccc(Cl)cc1C(=O)C21CC(c2cccnc2)=NO1` (centres unmarked), -21.5%; in that of `CCN(CC)C(=O)CN1CCC(n2c(C)nc3cc(C(F)(F)F)ccc32)CC1`, -32.8%.
The figure for `O=C1/C(=C/c2cccnc2)CCC/C1=C\c1cccnc1` is -16.5%; for `COc1ccc(C(CC(=O)NCc2ccccc2)C(C)C)cc1` (centres unmarked) it is -5.99%; for `Cc1ccc(C(=O)CCC(=O)NN2C(=O)NC3(CCCCC3)C2=O)cc1` it is 10%.
Take `O=C(N/C(=C\c1ccc([N+](=O)[O-])cc1)C(=O)N1CCCCC1)c1ccccc1Br`: the “hERG current change (%, negative = inhibition) at 10uM” value is listed as -59.4%.
For `Cc1cc(=O)oc2cc(OCC(=O)OCC(=O)N3CCC(C)CC3)ccc12`, the “hERG current change (%, negative = inhibition) at 10uM” value is 12.9%.
In the case of `CN(C)S(=O)(=O)c1ccc(Nc2ccc(-c3ccc4c(c3)OCCO4)nn2)cc1` it was -8.96%; in that of `Cc1ccc2c(c1)N(CC(=O)N1CCCC(C)C1)C(=O)CO2` (centres unmarked), 3.21%.
In the case of `COc1coc(/C=C/C(=O)O)cc1=O` it was 11%; in that of `CCOC(=O)N1CCN(S(=O)(=O)c2ccc(C(=O)Nc3sc4c(c3C#N)CCC4)cc2)CC1`, -2.41%; in that of `O=C(NCc1n[nH]c(=O)c2ccccc12)C1CC(=O)N(c2ccccc2)C1` (centres unmarked), -1.81%.
The figure for `O=C(c1cccc(Br)c1)c1coc2ccc(O)cc12` is 14.7%.
`Cc1ccc(S(=O)(=O)N2CCOCC2)cc1NC(=O)COC(=O)COc1cccc2c1OC(C)(C)C2`: the “hERG current change (%, negative = inhibition) at 10uM” value was -6.72%.
As for `CC1CCN(CCCn2c(=S)[nH]c3ccccc3c2=O)CC1`, the “hERG current change (%, negative = inhibition) at 10uM” value is on record as -56.9%.
In the case of `O=C(N/N=C/c1cccc([N+](=O)[O-])c1)c1ccc(COc2ccccc2-c2ccccc2)cc1` it was 0.73%.
As to `Cc1[nH]n(-c2ccccc2)c(=O)c1/C=N/n1c(C)nc2ccccc2c1=O`, the “hERG current change (%, negative = inhibition) at 10uM” value stood at 11.8%.
In the case of `O=C(CCN1C(=O)COc2ccccc21)N1CCCCC1` it was -6.49%.
In the case of `COc1cccc(CC(=O)OCC(=O)c2cc(OC)ccc2OC)c1` it was -28.7%; in that of `O=C(C1=C[C@@H](c2ccc(C(F)(F)F)cc2)C[C@@H](OCCCCO)O1)N1CCCCCCC1`, -51.3%; in that of `CCC(C)(C)NC(=O)CN(Cc1ccc2c(c1)OCO2)C(=O)CCC(=O)Nc1ccccn1`, -22.3%.
In the case of `O=[N+]([O-])c1cc([N+](=O)[O-])c(Oc2cc(F)ccc2F)cc1NN1CCCCC1` it was 24.4%; in that of `CCc1ccccc1NC(=O)CC1SCCNC1=O` (centres unmarked), 26.3%.
Take `CCCNC(=O)c1ccc2nc(-c3ccccc3)c(-c3ccccc3)nc2c1`: the “hERG current change (%, negative = inhibition) at 10uM” value came to 9.38%.
The figure for `CN(C)/C=N/C(=S)Nc1ccc(Br)cc1F` is 2.38%; for `NS(=O)(=O)c1ccc(CNS(=O)(=O)c2ccc3ccccc3c2)cc1` it is 1.74%; for `COc1ccc(Cc2nc(-c3cccs3)no2)cc1` it is -4.27%.
The figure for `NC(=O)CCS(=O)(=O)c1ccccc1` is 7.17%; for `CCNC(=O)N1CCOCC1` it is 8.3%; for `CCC(=O)c1ccc(SC(=O)N(C)C)cc1O` it is 12.1%.
In the case of `COc1ccccc1Oc1ccc(S(=O)(=O)N2CCOCC2)cc1S(=O)(=O)N1CCOCC1` it was -20.1%; in that of `CCOC(=O)C1CCN(C(=O)/C=C/c2ccccc2OC)CC1`, -24%.
As to `O=C(NNc1nc2ccccc2nc1C(F)(F)F)c1ccccc1`, the “hERG current change (%, negative = inhibition) at 10uM” value is reported as 11.9%.
In the case of `O=C1CCNc2c(Cl)cc(Cl)cc21`, the “hERG current change (%, negative = inhibition) at 10uM” value was -2.74%.
For the compound `O=C(CCC(=O)c1cccs1)Nc1nnc(C2CC2)s1`, the “hERG current change (%, negative = inhibition) at 10uM” value is listed as 5.89%.
The figure for `COc1ccc(CC(NC(C)=O)C(=O)N2CCN(C(=O)Nc3cccc(Cl)c3)CC2)cc1OC` (centres unmarked) is 4.89%; for `CCC1CCCCN1CCCNC(=O)c1ccc(CS(=O)(=O)c2ccccc2C)o1` (centres unmarked) it is -26.5%; for `O=C1C2CC=CCC2C(=O)N1CC1CCCO1` (centres unmarked) it is -3.68%.
The figure for `Fc1ccc(Br)cc1/C=N/n1cnnc1` is 11%.
The figure for `O=S(=O)(Nn1c(O)c(C=C2N=c3ccccc3=N2)sc1=S)c1ccccc1` is 4.52%; for `COc1cccc(OC)c1C(=O)Nc1sc2c(c1C#N)CCC2` it is 4.8%.
